The test has as its system Trichoderma virens ATCC 9645. Nature of the test: growth yield (OD600) relative to untreated control; higher = less growth inhibition. Particulars: compound concentration: 100 uM. An outline of the steps: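 Spores of Trichoderma virens ATCC 9645, taken from potato dextrose agar plates grown for 7 days, were suspended at 15,000 spores ml^−1 in potato dextrose broth. In 96-well plates, 100 μl aliquots held library compounds at 100 μM final, either alone or together with a biocide at 200 ng ml^−1, and were grown at 30 °C. A BioTek EL800 read OD600 at 40 h and 72 h. Growth values are given relative to the control lacking both agents and are means of duplicate screens.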

Counter-ions that a name gives are not always drawn. ± gives the standard error. The whole screen tested about 1,300 compounds, of which about 75 (6%) showed an effect of 50% or more. The list shows a part of the results.

`Cn1c(=O)c2[nH]cnc2n(C)c1=O` [Aminophylline]: the growth yield is, setting by setting: (40 h) 103 ± 6.7%; (72 h) 101 ± 4%.
In the same order, the values of `CS(=O)(=O)c1ccc(C2=C(c3ccccc3)C(=O)OC2)cc1` [Rofecoxib] are 102 ± 3.2% and 101 ± 6.1%.
In the same order, the values of `CN(C)CCC=C1c2ccccc2CCc2ccccc21` [Amitryptiline hydrochloride] are 95.94 ± 0.64% and 97.95 ± 0.63%.
For `Cc1ccnc2c1NC(=O)c1cccnc1N2C1CC1` [Nevirapine], in that order: 104 ± 3.5% and 100 ± 4.4%.
Regarding `Cc1[nH]c(=O)c(C#N)cc1-c1ccncc1` [Milrinone], the growth yield (40 h) came out at 106 ± 4.1% and the growth yield (72 h) was 103 ± 2.2%.
For `NS(=O)(=O)c1cc2c(cc1Cl)N=CNS2(=O)=O` [Chlorothiazide], in that order: 102 ± 1.1% and 106.3 ± 0.63%.
For `CNS(=O)(=O)Cc1ccc2[nH]cc(CCN(C)C)c2c1` [Sumatriptan succinate], in that order: 98.5 ± 5.7% and 97.5 ± 5%.
For `CN[C@H](CC(C)C)C(=O)N[C@H]1C(=O)N[C@@H](CC(N)=O)C(=O)N[C@H]2C(=O)N[C@H]3C(=O)N[C@H](C(=O)N[C@H](C(=O)O)c4cc(O)cc(O)c4-c4cc3ccc4O)[C@H](O)c3ccc(c(Cl)c3)Oc3cc2cc(c3O[C@@H]2O[C@H](CO)[C@@H](O)[C@H](O)[C@H]2O[C@H]2C[C@](C)(N)[C@H](O)[C@H](C)O2)Oc2ccc(cc2Cl)[C@H]1O` [Vancomycin hydrochloride], the growth yield by setting is: (40 h) 111.3 ± 0.48%; (72 h) 112 ± 2.5%.
For `NC(=O)c1ncn([C@@H]2O[C@H](CO)[C@@H](O)[C@H]2O)n1` [Ribavirin], in that order: 99.59 ± 0.79% and 100.8 ± 0.73%.
In the same order, the values of `CCOc1ccc2c(c1)C(C)=CC(C)(C)N2` [Ethoxyquin] are 84 ± 4% and 86.2 ± 1.5%.
`CCOC(=O)[C@H](CCc1ccccc1)N[C@@H](C)C(=O)N1[C@H](C(=O)O)C[C@@H]2CCC[C@@H]21` [Ramipril]: the growth yield reads like this: (40 h) 109 ± 3.5%; (72 h) 104 ± 2.6%.
In the same order, the values of `CC(C)COCC(CN(Cc1ccccc1)c1ccccc1)N1CCCC1` (stereo unspecified) [Bepridil hydrochloride] are 84.8 ± 4.1% and 103 ± 4.2%.
For `NS(=O)(=O)c1cc(C(=O)O)c(NCc2ccco2)cc1Cl` [Furosemide], in that order: 98.8 ± 2.2% and 105 ± 3.4%.
In the same order, the values of `Cc1cc(C2CCCCC2)n(O)c(=O)c1` [Ciclopirox ethanolamine] are 1.27 ± 1.3% and 1.15 ± 1.1%.
`COc1cc(C(=O)NS(=O)(=O)c2ccccc2C)ccc1Cc1cn(C)c2ccc(NC(=O)OC3CCCC3)cc12` [Zafirlukast] registered a growth yield (40 h) of 101.5 ± 0.79% and a growth yield (72 h) of 102.8 ± 0.21%.
In the same order, the values of `O=C1NCN(c2ccccc2)C12CCN(CCCC(c1ccc(F)cc1)c1ccc(F)cc1)CC2` [Fluspirilen] are 96.4 ± 1.8% and 107 ± 2.2%.
For `CC(C)(C)C(=O)OCOC(=O)[C@@H]1N2C(=O)[C@@H](NC(=O)[C@H](N)c3ccccc3)[C@H]2SC1(C)C` [Pivampicillin], in that order: 116 ± 7.5% and 111 ± 4.1%.
For `N=C(N)NC(=O)c1nc(Cl)c(N)nc1N` [Amiloride hydrochloride dihydrate], in that order: 98.6 ± 5.2% and 94.6 ± 2.3%.
In the case of `CCCCOC(=O)c1ccc(N)cc1` [Butamben], the growth yield reads like this: (40 h) 66.9 ± 1.8%; (72 h) 73 ± 2.5%.
In the same order, the values of `N[C@@H]1CCCCN(c2c(F)cc3c(=O)c(C(=O)O)cn(C4CC4)c3c2Cl)C1` [Besifloxacin hydrochloride] are 93.4 ± 6.3% and 91.6 ± 8.3%.
On to `CC[C@H]1OC(=O)[C@H](C)[C@@H](O[C@H]2C[C@@](C)(OC)[C@@H](O)[C@H](C)O2)[C@H](C)[C@@H](O[C@@H]2O[C@H](C)C[C@H](N(C)C)[C@H]2O)[C@](C)(OC)C[C@@H](C)C(=O)[C@H](C)[C@@H](O)[C@]1(C)O` [Clarithromycin], for which the growth yield is 107 ± 3% (40 h) and 103 ± 1.3% (72 h).
In the same order, the values of `CCOc1ccccc1OCC1CNCCO1` (stereo unspecified) [Viloxazine hydrochloride] are 99.6 ± 1.8% and 96.4 ± 1.4%.
For `CCCCC1=NC2(CCCC2)C(=O)N1Cc1ccc(-c2ccccc2-c2nnn[nH]2)cc1` [Irbesartan], in that order: 96.1 ± 2.1% and 98.06 ± 0.32%.
For `Nc1nc(=O)c2c([nH]1)NC[C@@H](CNc1ccc(C(=O)N[C@@H](CCC(=O)O)C(=O)O)cc1)N2C=O` [Folinic acid calcium salt], in that order: 99.8 ± 2.5% and 92 ± 4.1%.
Take `COc1ccc2cc([C@@H](C)C(=O)O)ccc2c1` [(R) -Naproxen sodium salt]: the growth yield by setting is: (40 h) 84.5 ± 7%; (72 h) 87.2 ± 6.4%.
In the same order, the values of `CC1(C)NC(=O)N(c2ccc([N+](=O)[O-])c(C(F)(F)F)c2)C1=O` [Nilutamide] are 96.73 ± 0.79% and 95.8 ± 1.1%.
For `CCCCC(CC)CNC(=N)NC(=N)NCCCCCCNC(=N)NC(=N)NCC(CC)CCCC` (stereo unspecified) [Alexidine dihydrochloride], the growth yield (40 h) was determined as 1.91 ± 0.32% and the growth yield (72 h) stood at 1.89 ± 0.63%.
For `COC(=O)[C@@H]1[C@H]2C[C@H]3c4[nH]c5ccccc5c4CCN3C[C@@H]2CC[C@@H]1O` [Yohimbine hydrochloride], in that order: 102 ± 2.5% and 104 ± 4.7%.
For `O=C1CCc2cc(OCCCCc3nnnn3C3CCCCC3)ccc2N1` [Cilostazol], in that order: 101 ± 5.4% and 101 ± 5.7%.
In the same order, the values of `CCS(=O)(=O)CCn1c([N+](=O)[O-])cnc1C` [Tinidazole] are 99.1 ± 2.9% and 96.6 ± 2%.
Consider `CCCCOc1cc(C(=O)NCCN(CC)CC)c2ccccc2n1` [Dibucaine], for which the growth yield by setting is: (40 h) 101.02 ± 1e-14%; (72 h) 98.37 ± 0.21%.
For `CCC1=C(C)CN(C(=O)NCCc2ccc(S(=O)(=O)NC(=O)N[C@H]3CC[C@H](C)CC3)cc2)C1=O` [Glimepiride], in that order: 108 ± 9.1% and 103 ± 6.7%.
For `O=C(O)Cc1sc(-c2ccccc2)nc1-c1ccc(Cl)cc1` [Fentiazac], in that order: 63.1 ± 4.3% and 88.8 ± 4.9%.

The values are drawn from the supplement of paper PMC8007513.
